Measurements from PubChem BioAssay AID540317 (National Center for Advancing Translational Sciences (NCATS), 2011).
Hit rate of the full screen: of about 390,000 compounds, about 2,200 (0.56%) were called active. This list was built around the results that the source calls inconclusive (neither active nor inactive); the mix of calls is not that of the screen. The call rests on the fitted dose curve; in most records, active means well fitted inhibition curve with a large enough effect; inconclusive means small, poorly fitted or top-dose-only effect; inactive means no such curve, though single readings can be large or run the other way. Where the call is inconclusive, the potency comes from a doubtful curve fit.

target: Chromobox protein homolog 1 (Homo sapiens) (UniProt P83916); experiment: HTS for Inhibitors of HP1-beta Chromodomain Interactions with Methylated Histone Tails; conditions: AlphaScreen HP1-beta / biotin-H3K9me3 peptide binding; series mostly up to 114 µM; activity change, negative = inhibition: at the top concentration; further: nearly all actives have a fitted effect of over 70% in size
Method in brief: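 Compound inhibition of the preformed complex between 50 nM HP1-beta and 50 nM biotinylated H3K9me3 peptide was read by AlphaScreen. Buffer was PBS pH 7.4 with 0.01% Tween-20. Incubations ran 30 min at room temperature, with 10 ug/mL donor/acceptor beads.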
Potency means the concentration at half of the fitted maximal effect; tags describe the fitted curve by direction and shape.

Chain of UniProt P83916 (P83916 whole entry, looked up): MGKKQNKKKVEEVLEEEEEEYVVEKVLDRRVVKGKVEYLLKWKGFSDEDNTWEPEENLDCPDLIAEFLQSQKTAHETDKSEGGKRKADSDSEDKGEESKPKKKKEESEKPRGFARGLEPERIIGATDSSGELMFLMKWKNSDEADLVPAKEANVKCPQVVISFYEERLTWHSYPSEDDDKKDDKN

SMILES	Potency	activity change, negative = inhibition
CCOC(=O)C1=C(C)N(c2ccc(OC)cc2)C(=O)/C1=C\c1ccc(O)c(OCC)c1	inconclusive: 14.1 µM [inhibitor, full curve, poor fit]	
CCc1ccc(OCc2nnc(SCCN3CCOCC3)n2C)cc1	inconclusive: 15.8 µM [inhibitor, full curve]	
NC(=O)c1cc[n+](CC2=C(C(=O)O)N3C(=O)[C@@H](NC(=O)C(c4ccccc4)S(=O)(=O)[O-])[C@H]3SC2)cc1 (some centres not stated)	inconclusive: 1.41 µM [inhibitor, full curve, poor fit]	
COc1ccc(OC)c(CNC(=O)c2ccc(NC(=O)c3nsc4ccccc34)cc2)c1		inactive: -1.66% [at 57 µM]
COc1ccc(/C=C/C(=O)c2ccc3c4c(cccc24)CC3)cc1OC	inconclusive: 35.5 µM [inhibitor, single point]	
COc1cccc(OC)c1C(=O)N1CCN(Cc2ccc3c(c2)OCO3)CC1	active: 44.7 µM	
COc1cccc(N2CCN(C(=O)c3cc(-c4ccc(F)cc4)[nH]c3C)CC2)c1	inconclusive: 70.8 µM [inhibitor, partial curve]	
O=C(O)/C(=C\c1ccccc1OC(F)F)Sc1nnc(-c2ccc(F)cc2)o1		inactive: 24.8%
Cc1ccc(NC(=O)c2cc3c(=O)[nH]c4ccccc4c3n2C)cc1F		inactive: 14.1%
Cc1csc(NC(=O)c2ccc(Cl)nc2)n1		inactive: 41%
CCN(CC)c1ccc(NC(=O)CCS(=O)(=O)c2ccc(Br)cc2)c(C)c1	active: 12.6 µM	
O=C1C=CC(=O)c2c(O)c(CO)c(CO)c(O)c21	active: 3.16 µM	
O=[N+]([O-])c1cc2c(cc1/C=N/NS(=O)(=O)c1ccc(Br)cc1)OCO2	inconclusive: 50.1 µM [inhibitor, partial curve]	
COC(=O)c1ccccc1NC(=O)N1CCN(c2ccccc2)CC1		inactive: 5.73%
COc1cc(OC)cc(C(=O)NNC(=S)NCc2ccco2)c1		inactive: 18.8%
O=C(/C=C/c1cccc([N+](=O)[O-])c1)Nc1cc(C(=O)O)cc(C(=O)O)c1	inconclusive: 5.62 µM [inhibitor, full curve]	
COc1cccc(Sc2ccccc2CN(C)C)c1	inconclusive: 89.1 µM [inhibitor, single point]	
Cc1c(C(=O)c2ccc(N(C)C)cc2)c2ccccn2c1CCC#N	inconclusive: 50.1 µM [inhibitor, partial curve, poor fit]	
COc1cc2nc(N(CCCN(C)C)C(=O)c3ccc(S(=O)(=O)N4CCc5ccccc54)cc3)sc2cc1OC	inconclusive: 39.8 µM [inhibitor, partial curve]	

SMILES	Potency	activity change, negative = inhibition
Cc1ccc(S(=O)(=O)N2CCOCC2)cc1NC(=O)CSc1nccn1C		inactive: 24.3%
Cc1cccc(NC(=S)N/N=C2/CCCCc3ccccc32)c1	inconclusive: 15.8 µM [inhibitor, full curve, poor fit]	
COc1ccc2sc(-c3ccccc3OC)c(-c3ccc4c(c3)OCCO4)c2c1	inconclusive: 39.8 µM [inhibitor, single point]	
C/C(=N\NC(=S)NC1CCCCC1)c1ccc(O)cc1	inconclusive: 39.8 µM [inhibitor, partial curve, poor fit]	
CCOc1cccc(C(=O)NC(=S)Nc2ccc(N3CCN(CC)CC3)cc2)c1	inconclusive: 50.1 µM [inhibitor, partial curve, poor fit]	
CCN(CC)CCNC(=O)c1ccc2c(c1NCCO)C(=O)c1ccccc1C2=O	inconclusive: 20 µM [inhibitor, partial curve, poor fit]	
Cc1cc(NC(=O)CN2CCC(C)CC2)no1	inconclusive: 14.1 µM [inhibitor, full curve, poor fit]	
C[C@H](CO)N1C[C@H](C)[C@@H](CN(C)Cc2ccncc2)Oc2c(NC(=O)Cc3ccccc3)cccc2C1=O		inactive: 39.6%
CCOc1ccc(NC(C)c2cc(Cl)ccc2O)cc1 (configuration not stated)	inconclusive: 89.1 µM [inhibitor, single point]	
N#CCCN1CCCc2cc(N=Nc3ccc(C(F)(F)F)cc3)ccc21	active: 11.2 µM	
CC1CCC2C(=O)N(c3ccc(NC4CCN(Cc5ccccc5)CC4)c([N+](=O)[O-])c3)C(=O)C2C1 (configuration not stated)	inconclusive: 14.1 µM [inhibitor, full curve, poor fit]	
COc1ccc(-n2c(C)cc(-c3csc(N)n3)c2C)cc1	inconclusive: 56.2 µM [inhibitor, single point]	
CCOC(=O)CSC1=NC(=O)/C(=C/c2ccc(Br)cc2)S1		inactive: 4.83%
O=C(CN1CCN(c2ccc(O)cc2)CC1)N1CCc2ccccc21	inconclusive: 89.1 µM [inhibitor, single point]	
CC1CCCC(N2CCN(C(=O)c3ccc([N+](=O)[O-])cc3)CC2)C1 (configuration not stated)	inconclusive: 15.8 µM [inhibitor, full curve, poor fit]	
COc1ccc2ccccc2c1C1CC(=O)N2CN(C)CSC2=C1C#N (configuration not stated)	inconclusive: 28.2 µM [inhibitor, single point]	
O=C(CN1CCCCCC1)Nc1nc2ccccc2s1	inconclusive: 28.2 µM [inhibitor, partial curve]	
COc1cccc(/C=N/N2C(=O)CSC2=S)c1O	inconclusive: 15.8 µM [inhibitor, full curve, poor fit]	
